Source: PubChem BioAssay AID1508623 (National Center for Advancing Translational Sciences (NCATS), 2021)
Screen size: about 48,000 compounds; about 450 (0.94%) were called active. Inconclusive results (about 19%) are left out. Calls come from the whole dose curve; as a rule, active = well fitted inhibition curve with a large enough effect; inconclusive = small, poorly fitted or top-dose-only effect; inactive = no such curve, though single readings can be large or run the other way. This is one part of the list.

test: Primary qHTS for Identification of Small Molecule Inhibitors of Huntingtin Promoter Activity; conditions: HEK293 HTT promoter firefly luciferase reporter (activity 0% = vehicle and -100% = no light), 24 h; series mostly up to 57.5 µM; activity change, negative = inhibition: at the top concentration; note: nearly all actives have a fitted effect of over 50% in size
Procedure, shortened: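 HEK293 cells carrying firefly luciferase reporters were seeded at 2,500 per well in Opti-MEM and cultured for 24 h. They were then treated with compounds at up to 57.5 uM final for 24 h at 37 degrees C before Dual-Glo luminescence readout.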

Activity change, negative = inhibition, inactive:
CC(=O)c1ccc(NC(=O)CSc2nc(=O)n(Cc3ccccn3)c3c2CCC3)cc1 0%
Cc1ccc(NS(=O)(=O)c2ccc3oc(=O)c4ncn(C)c4c3c2)cc1C -12.9%
O=C(CCC1N=C2c3ccccc3N=C(SCc3ccc(Cl)cc3)N2C1=O)NCc1cccs1 (stereo unspecified) -10.5%
COc1ccc(OCC(O)Cn2c(=N)n(CCN3CCCCC3)c3ccccc32)cc1 (stereo unspecified) -15.9%
COc1ccccc1C(=O)n1nc(-c2ccccc2)nc1NCc1ccc(Cl)cc1 3.89%
O=C(CCc1ccccc1)NC1CC(=O)N(c2cccc(F)c2)C1 (stereo unspecified) 4.55%
CCC(=O)N1CCc2cc(S(=O)(=O)NC(CC(C)C)C(=O)Nc3cccc(C)c3C)ccc21 (stereo unspecified) -16.8%
CN(C)c1ccc(CNC(=O)CN2C(=O)C3CCCCN3c3ccc(C(=O)N4CCCC4)cc32)cc1 (stereo unspecified) -13.6%
CCC(C)NC(=O)c1cc2n(n1)CCCN(Cc1ccc(C)cc1)C2=O (stereo unspecified) -25.4%
Cc1ccc(N2CCN(C(=O)c3cccn4c(=O)c5ccc(Cl)cc5nc34)CC2C)cc1 (stereo unspecified) 15%
COc1ccc(C(CNC(=O)c2oc3cc(C)c(C)cc3c2C)N2CCCCC2)cc1 (stereo unspecified) -4.77%
CCn1cc(C(=O)N2CCN(c3ccccc3)CC2)c(=O)c2cc(S(=O)(=O)N(C)C)ccc21 -5.65% [at 11.5 µM]
Cc1c2cnn(CC(=O)NCc3ccc(Cl)cc3)c(=O)c2c(C)n1Cc1ccc(F)cc1 -18.3%
O=C(Cc1ccc(F)cc1)NCCc1csc2nc(-c3ccccc3F)nn12 -0.797%
COc1ccc(CCNS(=O)(=O)c2c(C)nc3sccn3c2=O)cc1OC -1.42%
Cc1cc(NS(=O)(=O)c2ccc(NC(=O)COc3ccccc3Br)cc2)no1 -17.5%
Cc1ccccc1Nc1nn2c(=O)c3ccc(C(=O)NCc4cccs4)cc3nc2s1 -32.2%
CC(=O)Nc1ccc(C)cc1-c1nc2ccccc2n(CC(=O)c2ccc(C)c(C)c2)c1=O -6.95%
COc1ccc(S(=O)(=O)n2nc(C)c(S(=O)(=O)N3CCCCCC3)c2C)cc1C -4.28%
O=C(NCCc1csc(-c2ccc(C(F)(F)F)cc2)n1)C(=O)Nc1ccc(F)c(Cl)c1 1.54%
CCOc1ccccc1NS(=O)(=O)c1ccc(N2CCCCS2(=O)=O)cc1 -19.6%
CCOC(=O)c1c(N)n(-c2ccc(CC)cc2)c2nc3ccccc3nc12 -14.9%
Cc1ccc(C)c(NC(=O)Cn2c(SCC(=O)NCc3ccccc3)nc3ccccc32)c1 -18.1%
O=C(CN1C(=O)CSc2ccc(S(=O)(=O)N3CCOCC3)cc21)NCCCN1CCCCC1 -6.29%
Cc1ccc(N(CC(=O)N2CCN(c3ccccc3)CC2)S(=O)(=O)c2c(C)noc2C)cc1 7.69%
CC(C)CCCC(C)CCCC(C)CCCCC(C)CCCC(C)CCCC(C)C (stereo unspecified) -1.64%
CC(=O)N1CCOc2cc(S(=O)(=O)NCc3ccccc3Cl)c(Cl)cc21 -10.5%
CCc1ccc(NC(=O)Cn2c(=O)n(-c3ccccc3C)c(=O)c3c2c2cc(OC)ccc2n3C)cc1 -25.8%
CCOC(=O)c1ccccc1NC(=O)N1CCC(CN2CCOCC2)CC1 -23.6%
CCN1CCN(C(c2ccccc2Cl)c2sc3nc(-c4ccco4)nn3c2O)CC1 (stereo unspecified) 0%
CCOc1ccc(NC(=O)Cn2nc3c(cc2=O)CC(C)CC3)cc1 (stereo unspecified) 1.27%
Cc1ccc(-c2noc(-c3nnn(CC(=O)Nc4ccc(C)c(Cl)c4)c3N)n2)cc1 3.5%
CC(C)Oc1ccc(C(=O)NCC(c2ccc(N(C)C)cc2)N2CCc3ccccc32)cc1 (stereo unspecified) -11.6%
CCOc1ccc(N(CC(=O)Nc2ccc(OC)cc2)S(=O)(=O)c2ccc(Cl)cc2)cc1 1.5%
Cc1ccc2c(C)c(C(=O)N(Cc3ccc(N(C)C)cc3)Cc3ccco3)oc2c1C -18.9%
O=C(CCSCCc1ccccn1)Nc1ccc(Cl)cc1 -15.5%
CCn1c(=O)c2sccc2n2c(CCC(=O)Nc3ccc(F)cc3)nnc12 -7.97%
CCN(c1ccccc1)S(=O)(=O)c1nnc(NC(=O)C2CCCCC2)s1 -1.84%
COc1ccc2c(c1)c(N1CCCC1=O)c(C(=O)Nc1cc(C)c(Cl)cc1OC)n2C -19.3%
Cc1ccc2c(c1)cc1c(=O)n(Cc3ccccc3Cl)nc(C)n12 -7.73%
Oc1c(C(c2ccccc2)N2CCCC2)sc2nc(-c3ccco3)nn12 (stereo unspecified) -1.54%
CCOC(=O)Cc1ccc(NC(=O)NC(C)c2c(-n3cccc3)sc(C)c2C)cc1 (stereo unspecified) -24.1%
Cc1cc2oc(=O)c(CC(=O)O)c(C)c2c2occ(-c3ccccc3)c12 61.1%
COc1cc(-n2c(=O)c3ccccc3n(Cc3cccc(Cl)c3)c2=O)cc(OC)c1OC -26.2%
CCOC(=O)c1c(C)[nH]c(CCC(=O)NCc2cc(OC)c(OC)c(OC)c2)c1C 2.43%
CCNC(=O)CC1C(=O)N(c2ccc(C)cc2)C(=O)N1CCOC (stereo unspecified) -9.37%
COc1ccc(CNC(=O)CN2C(=O)CCn3nc(-c4cn(C)c5ccccc45)cc32)cc1 5.38%
O=C(c1cccc([N+](=O)[O-])c1)N1CCN(c2ccc(Nc3ccccc3)nn2)CC1 -23.9%
CC[N+](CC)(CC)CCOC(=O)C(C1CCCC1)C1CCCC1 -3.64%
CCn1nc(C)c2c(-c3ccccc3)cc(=O)n(C(C)C(=O)NCCc3ccc(Cl)cc3)c21 (stereo unspecified) -19.9%
CCOc1ccc(NC(=O)CCCn2c(C)c3cnn(-c4ccccc4)c(=O)c3c2C)cc1 -15.3%
CCOc1cccc(CNCCCSc2nnnn2C)c1 -15%
COc1ccc(OC)c(NC(=O)CSC2=Nc3ccccc3C3=NC(CC(=O)NCCc4ccccc4)C(=O)N23)c1 (stereo unspecified) 0%
COc1cc(OC)c(NC(=O)Cn2ncn3c(cc4cc(C)ccc43)c2=O)cc1Cl 2.52%
Cc1cccc(NC(=O)CSC2=Nc3ccccc3C3=NC(CCC(=O)NCc4ccco4)C(=O)N23)c1 (stereo unspecified) -6.23%
Cn1cc(C=C2C(=O)Nc3cccnc32)c2ccccc21 35.1%
COC(=O)c1sccc1S(=O)(=O)N(CC(=O)Nc1cccc(C)c1C)c1ccc(C)c(C)c1 -29.5%
CC(C)CN(CCNC(=O)CCN1N=C(c2ccccc2)CCC1=O)CC(C)C 2.28%
COc1ccc2c(c1)c1c(c(=O)n(CCc3ccccc3)c(=O)n1Cc1cccc(F)c1)n2C -10.2%
CCSc1nc2ccccc2c(OCc2ccc(Cl)cc2)c1C(=O)OC -17.1%
Cc1ccc(-c2onc(C)c2C)cc1S(=O)(=O)Nc1ccccn1 6.47%
CCc1ccccc1NC(=O)c1ccc2c(c1)CCCN2S(C)(=O)=O 1.08%
COc1ccc(Cn2c(CO)cnc2SCc2ccc(C)cc2)cc1 63.5%
COc1ccc(CCNC(=O)CN(c2ccccc2)S(=O)(=O)N(C)C)cc1OC -21.4%
CC(=O)N1CCC(N(CCCOC(C)C)C(=O)Nc2ccc(C)c(C)c2)CC1 -17.7%
CCc1cccc(C)c1NC(=O)CSc1nc2ccccc2nc1Cc1ccccc1 -2.92%
Cc1ccc(NC(=O)c2oc3ccc(S(=O)(=O)N4CCC5(CC4)OCCO5)cc3c2C)cc1Cl -12.2%
COc1ccc(-c2nc3cc(NC(=O)COc4ccccc4C)ccc3o2)cc1 -1.03%
CCc1c(C)sc2c1CCN(Cc1ccc(C#N)cc1)C2c1ccccc1 (stereo unspecified) -18.8%
O=C(CN1C(=O)CCSc2ccc(S(=O)(=O)N3CCCC3)cc21)Nc1cccc(F)c1 -25.4%
CCOC(=O)C(C)NC(=O)c1c2c(nc3ccccc13)C(=O)N(C1CCCCC1)C2 (stereo unspecified) -5.57%
COC(=O)CC1Oc2ccccc2-n2cc(-c3ccc(F)cc3)nc21 (stereo unspecified) -25.3%
COc1cc(C(c2c(C)[nH][nH]c2=O)c2c(C)[nH][nH]c2=O)ccc1OC(=O)c1ccccc1OC 6.29%
Cc1ccc(Cl)cc1-n1nnc(-c2nc(-c3ccc4c(c3)OCO4)no2)c1C 22.8%
COc1ccc(Nc2nn3c(=O)c4cc5c(cc4nc3s2)OCO5)c(OC)c1 -15.2%
CCOc1ccc(/C=C/C(=O)Nc2ccc3nc(N(CC)CC)cc(C)c3c2)cc1OC -21.8%
CCC(=O)N1c2ccc(S(=O)(=O)CCC(=O)Nc3ccc(OC)cc3OC)cc2CC1C (stereo unspecified) -4.29%
CCN1CCN(c2ncc3c(n2)CCN(Cc2ccccc2C)C3)CC1 -11.3%
CCc1ccc(-n2nc(CO)c(C(=O)NC)n2)cc1 52.5%
COc1ccc(-c2nc(CS(=O)CC(=O)NCCc3ccc(Cl)cc3)c(C)o2)cc1OC (stereo unspecified) -16.9%
COc1cc(CN(C(=O)c2ccccc2F)C2CCS(=O)(=O)C2)cc(OC)c1OC (stereo unspecified) -15.6%
CCCS(=O)(=O)N1CC(=O)N(c2ccc(C)c(Cl)c2)C(C)(C(=O)NC2CCCCCC2)C1 (stereo unspecified) -5.75%
Oc1c(C(c2ccc(F)cc2)N2CCN(Cc3ccccc3)CC2)sc2nc(-c3ccco3)nn12 (stereo unspecified) -0.119%
CN1C(=O)C2(c3ccccc31)N(c1cccc(C(F)(F)F)c1)C(=O)CS2(=O)=O (stereo unspecified) -24.2%
COc1ccc(NC(=O)C2CCCN(S(=O)(=O)c3c(C)[nH]c(=O)[nH]c3=O)C2)c(OC)c1 (stereo unspecified) 22.6%
O=C(NCc1ccc(F)cc1)C(=O)NCC(c1ccc2c(c1)OCO2)N1CCOCC1 (stereo unspecified) -2.5%
Cc1cccc(-c2nc3nc(C)cc(NC(C)c4ccccc4)n3n2)c1 (stereo unspecified) -8.4%
COc1ccc(C(=O)N(Cc2ccco2)Cc2ccc(C)o2)cc1 -3.93%
COc1cc(NS(=O)(=O)c2ccc(NC(=O)c3ccc(Cl)cc3Cl)cc2)nc(OC)n1 -0.423%
CNC(=O)c1c(NC(=O)/C=C/c2ccccc2)sc2c1CCC2 -1.41%
Cc1ccc2nc(-c3ccc(NC(=O)COc4ccc(Br)cc4Br)cc3)sc2c1 -27.2%
CCOc1ccc(NC(=O)Cn2nnc(-c3nc(-c4ccncc4)no3)c2N)cc1 4.02%
Cc1ccccc1NC(=O)/C(C#N)=C/c1ccc(Cl)cc1Cl -9.87%
CCc1ccc(NCc2cc3cc4c(cc3n(CC(=O)Nc3ccccc3C)c2=O)OCCO4)cc1 -15.9%
Cc1nn2c(C)c(C(=O)NCCc3ccccc3)cnc2c1-c1ccccc1 10.6%
CCOC(=O)c1ccc(NC(=O)CC(=O)Nc2ccc3nc4n(c(=O)c3c2)CCCCC4)cc1 -6.48%
